# Assay results as given in publication PMC4336329 (PLoS ONE, 2015).
# The campaign covered roughly 310,000 compounds. About 14,000 (4.5%) showed an effect of 50% or more. The effect is printed as a negative number. This is one part of the list.
# Biological target: human ether-à-go-go-related gene (hERG) potassium channel (human, UniProt Q12809)
# Experiment: primary screen, population patch clamp on CHO cells stably expressing hERG
# 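Also: peak tail current of the secondary pulse compared with the same well before compound.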
# Sequence of human ether-à-go-go-related gene (hERG) potassium channel (Q12809 whole entry, looked up): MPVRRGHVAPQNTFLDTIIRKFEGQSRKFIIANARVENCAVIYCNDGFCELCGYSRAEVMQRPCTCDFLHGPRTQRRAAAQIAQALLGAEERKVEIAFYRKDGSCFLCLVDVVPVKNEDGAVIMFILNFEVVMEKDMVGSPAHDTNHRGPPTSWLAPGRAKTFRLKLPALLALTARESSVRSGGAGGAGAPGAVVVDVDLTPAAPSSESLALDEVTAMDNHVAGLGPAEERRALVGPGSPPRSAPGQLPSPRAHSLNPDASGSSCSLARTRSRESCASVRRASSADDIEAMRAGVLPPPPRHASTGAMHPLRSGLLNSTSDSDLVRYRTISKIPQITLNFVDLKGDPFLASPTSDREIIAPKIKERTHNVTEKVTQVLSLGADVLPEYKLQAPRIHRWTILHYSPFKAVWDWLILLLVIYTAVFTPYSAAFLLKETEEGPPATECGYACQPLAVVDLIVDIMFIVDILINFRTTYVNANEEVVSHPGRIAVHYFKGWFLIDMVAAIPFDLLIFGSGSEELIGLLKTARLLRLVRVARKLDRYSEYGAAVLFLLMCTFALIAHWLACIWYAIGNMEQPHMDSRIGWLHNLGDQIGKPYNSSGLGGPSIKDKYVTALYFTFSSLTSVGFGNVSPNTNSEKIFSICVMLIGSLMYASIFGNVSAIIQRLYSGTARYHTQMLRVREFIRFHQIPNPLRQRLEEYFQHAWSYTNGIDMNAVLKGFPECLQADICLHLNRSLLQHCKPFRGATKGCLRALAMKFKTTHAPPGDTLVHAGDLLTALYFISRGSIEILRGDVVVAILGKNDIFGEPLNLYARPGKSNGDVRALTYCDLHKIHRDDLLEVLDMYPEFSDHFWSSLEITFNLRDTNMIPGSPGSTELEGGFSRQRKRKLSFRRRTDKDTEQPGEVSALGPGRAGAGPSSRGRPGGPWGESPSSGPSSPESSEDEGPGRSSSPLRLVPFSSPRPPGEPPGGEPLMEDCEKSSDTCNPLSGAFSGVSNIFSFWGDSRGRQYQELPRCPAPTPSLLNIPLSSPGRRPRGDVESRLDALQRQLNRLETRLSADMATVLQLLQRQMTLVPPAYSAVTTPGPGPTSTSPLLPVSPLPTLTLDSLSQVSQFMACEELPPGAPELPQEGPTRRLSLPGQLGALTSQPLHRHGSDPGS
row,SMILES,"hERG current change (%, negative = inhibition) at 10uM [%]"
1,Cc1ccccc1Cn1ccc(NC(=O)c2cnn3c(C(F)(F)F)cc(-c4ccco4)nc23)n1,15.1
2,O=C(Cc1cccc(C(F)(F)F)c1)OCN1C(=O)c2ccccc2C1=O,16.8
3,COc1cc(NS(=O)(=O)c2ccc(NC(=S)NC(=O)C3CCCC3)cc2)nc(OC)n1,-15.1
4,NS(=O)(=O)c1ccc(NC(=O)CCCC(=O)O)cc1,7.58
5,Cl.c1ccc2c(N3CCNCC3)cccc2c1,10.9
6,O=C(Oc1ccccc1N1C(=O)C2CCCCC2C1=O)c1ccc(Cl)cc1 (stereo not drawn),-7
7,O=c1c2ccccc2nc(SCc2cn3ccsc3n2)n1-c1ccc(F)cc1,0.658
8,COc1ccc(CN(C(=O)c2ccco2)c2ccccc2)cc1,-18.2
9,Nc1nc(SCc2ccccc2Cl)n[nH]1,21.5
10,CN(C)c1cc(-c2ccc(Cl)cc2)oc(=O)c1Cl,-6.67
11,CCOc1cc(/C=C(\C#N)C(=O)NCC2CCCO2)ccc1OCC(N)=O (stereo not drawn),18.9
12,O=C(CSc1nnc(-c2cccs2)n1Cc1ccco1)c1ccc2c(c1)OCO2,-40
13,CCc1nn(CC(=O)NCCCc2ccccc2)c(=O)c2cc3cc(F)ccc3n12,1.58
14,COc1ccc(CC(=O)NCC2CCCN(Cc3cccc(SC)c3)C2)cc1 (stereo not drawn),-34.6
15,Cc1cccc(N2C(=O)SC(N(C)c3ccccc3)C2=O)c1 (stereo not drawn),0.296
16,COC(=O)/C=C1/S/C(=N/NC(=O)c2ccc(Cl)cc2Cl)NC1=O,-9.77
17,COCCN1C(=O)N(c2cccc(OC)c2)C(=O)C1CC(=O)Nc1ccc(OC)cc1 (stereo not drawn),-9.92
18,COc1ccc(N(CC(=O)NN=C2CCCC2)S(=O)(=O)c2ccccc2)cc1Cl,15.2
19,CC(O)CNc1nc2c(c(=O)n(C)c(=O)n2C)n1CCc1ccccc1 (stereo not drawn),16.5
20,Cc1ccc(CNC(=O)C2CC(c3cccc([N+](=O)[O-])c3)=NO2)cc1 (stereo not drawn),-17.1
21,CCc1ccc2oc(-c3cc(N)ccc3O)nc2c1,0.826
22,Nc1nnc(CC(=O)N/N=C/c2ccccc2OCc2ccccc2F)s1,6.19
23,O=C(COC(=O)c1cccs1)Nc1ccccc1Cl,15.6
24,Cc1cc(C(=O)C(=O)O)c(C)n1-c1ccc(Cl)c(Cl)c1,21.6
